The campaign covered roughly 48,000 compounds. About 450 (0.94%) were called active. Roughly 19% stayed inconclusive and do not appear here. The call rests on the fitted dose curve; in most records, active means well fitted inhibition curve with a large enough effect; inconclusive means small, poorly fitted or top-dose-only effect; inactive means no such curve, though single readings can be large or run the other way. The list shows a part of the results.
Assay: Primary qHTS for Identification of Small Molecule Inhibitors of Huntingtin Promoter Activity; further: nearly all actives have a fitted effect of over 50% in size
Conditions: HEK293 HTT promoter firefly luciferase reporter (activity 0% = vehicle and -100% = no light), 24 h; series mostly up to 57.5 µM; activity change, negative = inhibition: at the top concentration
Summary of the method: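 HEK293 Fluc reporter, 2,500 cells/well, 24 h pre-culture; cpds up to 57.5 uM final, 24 h 37 degrees C; Dual-Glo, 10 min RT; normalized vehicle = 0%, zero RLU = -100%.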

Activity change, negative = inhibition, inactive:
CCCN(C(=O)Cc1nc(-c2ccc(OC)cc2)no1)c1ccccc1C -24.9%, CCCCOC(=O)c1ccc(OC(=O)c2sc3ncn(Cc4cccc(F)c4)c(=O)c3c2C)cc1 1.36%, CCOC(=O)c1[nH]c(C)c(CCC(=O)Nc2ccccc2OCC)c1C -28.4%, CCC(C)NC(=O)Cn1c(=O)n(CCCCCC(=O)Nc2ccccc2)c(=O)c2sccc21 (stereo unspecified) 21.6%, Cn1c(=O)c2c(nc(NCCCCO)n2Cc2ccccc2Cl)n(C)c1=O -15.4%, COc1ccc(C(=O)Nc2nnc(SCc3cc(=O)c4cccc(F)c4[nH]3)s2)cc1 16.5%, CN1C(=O)CC(C(=O)Nc2ccc(C(=O)O)cc2)SC1=Nc1ccc(Cl)cc1 (stereo unspecified) -0.988%, Cc1ccc2c(=O)cc(C(=O)Nc3ccc(S(=O)(=O)N4CCCCC4C)cc3)oc2c1C (stereo unspecified) 38.5%, CCN(CC)CCCNC(=O)Cn1ncc2c3ccccc3n(Cc3ccccc3)c2c1=O -1.9%, CCN(CC)c1ccc(NS(=O)(=O)c2cc(-c3onc(C)c3C)ccc2OC)c(C)c1 -15.5%, COc1cccc(-c2nnc(SCC(=O)N(C)c3ccccc3)o2)c1 22.4%, COc1cc2[nH]c(=O)[nH]c(=O)c2cc1OC 9.45%, CC(=O)c1ccc(NC(=O)C(C)n2nc(-c3ccccc3)ccc2=O)cc1 (stereo unspecified) -12.7%, O=C(Cn1ncc2c3ccccc3n(Cc3cccc(Cl)c3)c2c1=O)NCCCc1ccccc1 -5.76%, COc1ccc(-c2c(C)nn3c(-c4ccccc4)cc(C)nc23)cc1OC -23.2%, Cc1cc(C)n(C(C)CC(=O)Nc2cccc(C#N)c2)n1 (stereo unspecified) 1.05%, CCOc1ccc(-c2nn(-c3ccc(F)cc3)c3c2cnc2ccc(F)cc23)cc1 -5.12%, Cc1ccc2oc(-c3ccc(Cl)cc3)c(O)c(=O)c2c1 89.1%, Cc1cc(O)c(C(c2ccccc2)N2CCN(c3ccccc3)CC2)c(=O)n1Cc1ccco1 (stereo unspecified) -2.18%, CCn1cc(C(=O)NCCc2ccc(OC)c(OC)c2)c(=O)c2cc(S(=O)(=O)N3CCOCC3)ccc21 27.7%, Cc1ccc(C(=O)Nc2nnc(S(=O)(=O)N(C)Cc3ccco3)s2)cc1 66.1%, CC1CCN(S(=O)(=O)c2ccc3c(ccn3CC(=O)NCc3ccccc3F)c2)CC1 -22.8%, Cc1cccc(-n2nnc(-c3nc(-c4ccccc4)no3)c2N)c1C 68.8%, Cc1ccc(C)c(NC(=O)CN2CCN(C3CCCCC3)C(=O)C2=O)c1 0.802%, COc1cccc(CNC(=O)c2ccc3c(c2)nc2n3CCOC2)c1OC 0.46%, Cc1cnc(C(=O)NCCc2ccc(S(=O)(=O)NC(=O)NC3CCCCC3)cc2)cn1, O=C(Nc1cccc(C(F)(F)F)c1)c1cc(-c2ccc(Cl)cc2)on1 -5.74%, Cc1cc(-c2ncc(CC(=O)Nc3ccc(-c4cnccn4)cn3)cc2C)ccn1 -20.8%, COCCCNC(=O)CSc1nc2cc3c(cc2c(=O)n1CCCCCC(=O)NCCc1ccc(OC)c(OC)c1)OCO3 -10.1%, COc1ccc2c(CNC3CCCC3)c(C(=O)O)n(Cc3ccccc3C)c2c1 4.02%, CCc1nn2c(=O)cc(COC(=O)c3cccc(NC(=O)c4ccccc4C)c3)nc2s1 -6.65%, Cc1cc(C)c2c(=O)cc(C(=O)Nc3sc4c(c3C#N)CCCC4)oc2c1 14.9%, Cc1ccccc1NC(=O)CN1C(=O)C2(SCC(=O)N2c2ccc(F)cc2)c2ccccc21 (stereo unspecified) -9.23%, COc1ccc2c(c1)c(CC(=O)Nc1cccc(F)c1C)c(C)n2C(=O)c1ccc(Cl)cc1 -10%, COc1cccc(-n2ccn(CC(=O)Nc3ccccc3F)c(=O)c2=O)c1 -7.06%, COc1ccc(C2=C(C)C(N3CCC(C(=O)NCc4ccco4)CC3)=NS2(=O)=O)cc1 -18.3%, CCc1ccccc1NC(=O)Cn1cc(C(=O)c2ccc(Cl)cc2)c(=O)c2ccc(C)nc21 5.43%, CCOC(=O)c1[nH]c2ccccc2c1NC(=O)c1cc(OC)cc(OC)c1 -2.44%, COc1cccc(-c2ccnc3c(-c4ccccc4)c(C)nn23)c1 -2.26%, C[C@H]1[C@H](NC(=O)C(=NOC(C)(C)C(=O)O)c2csc(N)n2)C(=O)N1S(=O)(=O)O -2.09%, CCOc1ccc(NC(=O)N2CCC(CN3CCC(C)CC3)CC2)cc1 -12.9%, COc1ccc(-c2cc(C(=O)NCCc3ccc(Cl)cc3)[nH]n2)cc1 -9.03%, Cc1ccccc1-c1nc2c3c(-c4ccccc4)c(-c4ccccc4)oc3ncn2n1 -9.41%, Cc1cccc(N2CCN(C(=O)COCc3cc(-c4ccc5c(c4)OCO5)on3)CC2)c1C -5.06%, Cc1ccc(CNc2nc3c(c(=O)n(C)c(=O)n3C)n2Cc2ccc(Cl)cc2)cc1 6.57%, CCn1c(=O)n(-c2ccc(F)c(Cl)c2)c(=O)c2sc3ccccc3c21 -6.02%, CN(C)c1ccc(NC(=O)CSc2nc(-c3ccco3)cc(C(F)(F)F)n2)cc1 -21.6%, O=C(COc1ccccc1Cl)N(Cc1ccco1)Cc1ccco1 -13%, Cc1ccccc1C(=O)Oc1cc(-c2ccc3c(c2)OCO3)cc(=O)c2c(C)oc(C)c12 -29.6%, Cc1ccc(Cl)cc1NC(=O)c1cc2c(=O)n3cccc(C)c3nc2n1C 0.714%, Cc1ccc(S(=O)(=O)c2cnc(SCC(=O)Nc3ccccc3C(F)(F)F)[nH]c2=O)cc1C -9.06%, O=C(NCc1ccc(F)cc1)c1cnc(N2CCOCC2)c2ccccc12 -12.3%, Cc1cc(C)cc(NC(=O)C2CCCN(c3cnccn3)C2)c1 (stereo unspecified) -0.681%, CCOc1cc(CNC(=O)c2ccc3c(c2)nc2n3CCCCC2)ccc1OC -12.5%, COc1ccc(-n2c(=O)c3c4c(sc3n(CC(=O)N3CCCCC3C)c2=O)CCC4)c(OC)c1 (stereo unspecified) -5.54%, Cc1ccc(N2CCN(C(=O)c3ccc(Nc4nc5ccccc5n5nnnc45)cc3)CC2)c(C)c1 3.85%, COc1ccccc1N1CCN(S(=O)(=O)c2c(C)sc3ncn(CC(=O)Nc4ccc(C(C)C)cc4)c(=O)c23)CC1 -11.3%, CC1CCN(CCCNC(=O)CN2C(=O)CSc3ccc(S(=O)(=O)N4CCC(C)CC4)cc32)CC1 -15.3%, O=C(NC1CCCC1)c1cnn(-c2ccc(F)cc2F)c1C1CCNCC1 -7.95%, Cc1ccc(S(=O)(=O)N2CCN(Cc3ccccc3)CC2)c(C)c1NS(C)(=O)=O -24.9%, Cc1cccc(Cn2c(=O)n(CCCCC(=O)NCc3ccc4c(c3)OCO4)c(=O)c3ccccc32)c1 -7.41%

— PubChem BioAssay AID1508623 (National Center for Advancing Translational Sciences (NCATS), 2021)
